# From the supplement of paper PMC12645437, “Orthogonal IMiD-Degron Pairs Induce Selective Protein Degradation in Cells” (ACS Chemical Biology, 2025)
# The other results are listed elsewhere or left out.
# Target: no compound (DMSO)
# Experiment: log2 fold change of degron read counts, EGFP-low vs EGFP+ sorted cells; higher = lower degron-EGFP level without compound (poor expression or instability)
# Details: compound: DMSO control; 18 h
# 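Also: jurkat cells carrying a lentiviral library of mutant zinc finger degrons fused to EGFP plus mCherry, mCherry+ cells FACS sorted, degron abundance counted by next-generation sequencing.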
row,Sequence,log2 fold change of degron read counts
1,FFCDVCGASFTQKGNLLRHIKL,-1.5
2,FACNICGAFFTQKGNLLRHIKL,0.463
3,FQCDICGAPFTQKGNLLRHIKL,-0.799
4,FMCPVCGASFTQKGNLLRHIKL,0.276
5,FTCPICGAGFTQKGNLLRHIKL,-0.713
6,FFCSVCGHEFTQKGNLLRHIKL,-0.485
7,FWCDQCGAIFTQKGNLLRHIKL,1.05
8,FYCEICGATFTQKGNLLRHIKL,-1.1
9,FECEICGADFTQKGNLLRHIKL,-2.22
10,FDCEVCGAHFTQKGNLLRHIKL,-1.66
11,FACSVCGHWFTQKGNLLRHIKL,0.801
12,LECEICGFACTQKGNLLRHIKL,-0.688
13,FMCDVCGAYFTQKGNLLRHIKL,-2.01
14,FICEICGHQFTQKGNLLRHIKL,-1.83
15,FQCEICGHDFTQKGNLLRHIKL,-2.37
16,FSCNICGASFTQKGNLLRHIKL,-1.05
17,LKCPICGFYCTQKGNLLRHIKL,1.08
18,FMCPVCGACFTQKGNLLRHIKL,-0.166
19,FACEICGAVFTQKGNLLRHIKL,-1.09
20,FNCNQCGRFFTQKGNLLRHIKL,1.09
21,FACNVCGAWFTQKGNLLRHIKL,0.719
22,FHCDICGAAFTQKGNLLRHIKL,-0.769
23,FKCEICGHCFTQKGNLLRHIKL,-2.06
24,FQCNICGAHFTQKGNLLRHIKL,-1.3
25,FYCEICGRQFTQKGNLLRHIKL,-0.987

row,Sequence,log2 fold change of degron read counts
1,FGCEVCGALFTQKGNLLRHIKL,-0.935
2,FICEVCGAWFTQKGNLLRHIKL,-0.192
3,FLCPQCGAHFTQKGNLLRHIKL,-0.626
4,FECDICGACFTQKGNLLRHIKL,-2.56
5,FCCPVCGAHFTQKGNLLRHIKL,-0.0975
6,FECEICGRHFTQKGNLLRHIKL,-1.52
7,FSCPICGRFFTQKGNLLRHIKL,-0.733
8,LSCEICGFQCTQKGNLLRHIKL,-1.25
9,FCCNQCGRQFTQKGNLLRHIKL,-0.454
10,LMCEICGFNCTQKGNLLRHIKL,0.107
11,FLCNVCGATFTQKGNLLRHIKL,-1.37
12,FACSVCGHGFTQKGNLLRHIKL,0.149
13,FCCEQCGAEFTQKGNLLRHIKL,-2.32
14,FICPICGHIFTQKGNLLRHIKL,0.783
15,LNCNQCGFPCTQKGNLLRHIKL,0.355
16,FSCNQCGRCFTQKGNLLRHIKL,-0.871
17,FYCNQCGRKFTQKGNLLRHIKL,-0.681
18,FWCDVCGAQFTQKGNLLRHIKL,-1.18
19,FVCPVCGAEFTQKGNLLRHIKL,-0.746
20,LLCEICGFWCTQKGNLLRHIKL,1.59
21,FMCEICGRNFTQKGNLLRHIKL,-1.9
22,FFCDICGALFTQKGNLLRHIKL,-0.0379
23,FGCPVCGACFTQKGNLLRHIKL,0.618
24,FLCEVCGASFTQKGNLLRHIKL,-1.81
25,FTCPICGHNFTQKGNLLRHIKL,0.0162
